Each molecule was assayed on Colletotrichum orbiculare. Conditions: 250 ppm, sprayed 2.5 ml/pot before inoculation; evaluated 6-10 days after inoculation.

Compound | Test H (control value class, anthracnose on cucumber)
CCN1C(=S)CCC(c2cc(OC)ccc2Cl)=C1c1c(F)cccc1F [Compound 581] | H (H shows more than 50% of control values)
CCn1c(-c2c(F)cc(OC)cc2F)c(-c2ccc(F)cc2Cl)cc(Cl)c1=O [Compound 593] | H (H shows more than 50% of control values)
CCOc1cc(F)c(-c2c(-c3ccc(F)cc3Cl)cc(Cl)c(=O)n2C)c(F)c1 [Compound 616] | H (H shows more than 50% of control values)
Cn1c(-c2c(F)cc(F)cc2F)c(-c2ccc(F)cc2Cl)cc(Cl)c1=O [Compound 596] | H (H shows more than 50% of control values)
CCn1c(-c2c(F)cc(F)cc2F)c(-c2cc(OC)cc(F)c2Cl)ccc1=O [Compound 615] | H (H shows more than 50% of control values)
CCn1c(-c2c(F)cc(F)cc2F)c(-c2ccc(C)cc2Cl)cc(Cl)c1=O [Compound 628] | H (H shows more than 50% of control values)
CCn1c(-c2c(F)cc(OC)cc2F)c(-c2cccc(F)c2Cl)cc(Br)c1=O [Compound 656] | H (H shows more than 50% of control values)

Same assay, conditions: in vivo

Compound | Test H (control value class) | Test H control value
CCn1c(-c2c(F)cccc2F)c(-c2cccc(Cl)c2F)cc(Cl)c1=O [Compound 473] | L (key: H shows more than 50% of control values; L shows 50% or less of control values) | –
COc1cc(OC)c(Cl)c(-c2ccc(=O)n(/C=C\F)c2-c2c(F)cc(F)cc2F)c1 [Compound 380] | H (key: H shows more than 50% of control values; L shows 50% or less of control values) | –
CCn1c(-c2c(F)cccc2F)c(-c2ccccc2C)cc(Cl)c1=O [Compound 161] | – | L (key: H shows more than 50% of control values; L shows 50% or less of control values)
COc1ccc(Cl)c(-c2cc(Cl)c(=O)n(N)c2-c2c(F)cccc2F)c1 [Compound 423] | H (key: H shows more than 50% of control values; L shows 50% or less of control values) | –
Cn1c(-c2c(F)cccc2F)c(-c2cc(Cl)ccc2Cl)ccc1=O [Compound 446] | H (key: H shows more than 50% of control values; L shows 50% or less of control values) | –
CCCCn1c(-c2c(F)cccc2F)c(-c2cc(OC)ccc2Cl)ccc1=O [Compound 394] | L (key: H shows more than 50% of control values; L shows 50% or less of control values) | –
CCn1c(-c2c(F)cc(OC)cc2F)c(-c2cc(F)cc(F)c2Br)cc(Cl)c1=O [Compound 819] | H (key: H shows more than 50% of control values; L shows 50% or less of control values) | –
CCn1c(-c2c(F)cccc2Br)c(-c2cc(OC)cc(OC)c2)ccc1=O [Compound 175] | – | H (key: H shows more than 50% of control values; L shows 50% or less of control values)
Cn1c(-c2c(F)cccc2F)c(-c2c(F)c(F)c(F)c(F)c2F)ccc1=O [Compound 373] | L (key: H shows more than 50% of control values; L shows 50% or less of control values) | –
Cn1c(-c2c(F)cc(F)cc2F)c(-c2cc(F)ccc2F)ccc1=O [Compound 426] | H (key: H shows more than 50% of control values; L shows 50% or less of control values) | –
Cc1ccccc1-c1cc(Br)c(=O)n(C)c1-c1c(F)cccc1F [Compound 182] | – | L (key: H shows more than 50% of control values; L shows 50% or less of control values)
CCn1c(-c2c(F)cccc2F)c(-c2cc(F)ccc2F)cc(Br)c1=O [Compound 482] | L (key: H shows more than 50% of control values; L shows 50% or less of control values) | –
COc1cc(F)c(-c2c(-c3ccc(OC)cc3Cl)cc(Cl)c(=O)n2C)c(F)c1 [Compound 776] | L (key: H shows more than 50% of control values; L shows 50% or less of control values) | –
O=c1ccc(-c2c(F)c(F)c(F)c(F)c2F)c(-c2c(F)cccc2F)n1CC(F)F [Compound 383] | L (key: H shows more than 50% of control values; L shows 50% or less of control values) | –
